Data as given in the supplement of paper PMC8728848.
This is one part of the list.

Tests used:
Test in all cases: glycan array binding signal (z-score within array); higher = stronger binding
Details in all cases: glycan notation: IUPAC condensed, linker removed
[1] = biological target: GalNAc(b1-4)GlcNAc(b1-2)Man
Procedure, shortened: (§1)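 Glycan array data were curated from 3228 arrays in the Consortium for Functional Glycomics database and kept only where the protein sequence was available. Glycan names were converted to IUPAC-condensed notation, and columns mapping to the same glycan were averaged. The binding signal is a within-array Z-score, averaged across arrays of the same protein sequence at different concentrations or buffers and across linkers. Negative Z-scores can be read as non-binding.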

[2] = biological target: GalNAc(b1-4)GlcNAc(b1-2)Man(a1-3)[GalNAc(b1-4)GlcNAc(b1-2)Man(a1-6)]Man(b1-4)GlcNAc(b1-4)GlcNAc
Procedure, shortened: as §1

[3] = biological target: GalNAc(b1-4)GlcNAc(b1-3)GalNAc(b1-4)GlcNAc
Procedure, shortened: as §1

GalNAc(b1-4)GlcNAc6S = biological target: GalNAc(b1-4)GlcNAc6S
Procedure, shortened: as §1

GalNAc(b1-6)GalNAc = biological target: GalNAc(b1-6)GalNAc
Procedure, shortened: as §1

GalNAc3S(b1-4)GlcNAc = biological target: GalNAc3S(b1-4)GlcNAc
Procedure, shortened: as §1

GalNAc3S(b1-4)GlcNAc3S = biological target: GalNAc3S(b1-4)GlcNAc3S
Procedure, shortened: as §1

[4] = biological target: GalNAc3S(b1-4)[Fuc(a1-3)]GlcNAc
Procedure, shortened: as §1

GalNAc4S6S(b1-4)GlcNAc = biological target: GalNAc4S6S(b1-4)GlcNAc
Procedure, shortened: as §1

GalNAc6S(b1-4)GlcNAc = biological target: GalNAc6S(b1-4)GlcNAc
Procedure, shortened: as §1

Glc(a1-4)Glc = biological target: Glc(a1-4)Glc
Procedure, shortened: as §1

[5] = biological target: Glc(a1-4)Glc(a1-4)Glc(a1-4)Glc
Procedure, shortened: as §1

Glc(a1-6)Glc(a1-6)Glc = biological target: Glc(a1-6)Glc(a1-6)Glc
Procedure, shortened: as §1

[6] = biological target: Glc(a1-6)Glc(a1-6)Glc(a1-6)Glc
Procedure, shortened: as §1

Glc(b1-4)Glc = biological target: Glc(b1-4)Glc
Procedure, shortened: as §1

Glc(b1-6)Glc = biological target: Glc(b1-6)Glc
Procedure, shortened: as §1

GlcA(b1-3)Gal = biological target: GlcA(b1-3)Gal
Procedure, shortened: as §1

GlcA(b1-3)GlcNAc = biological target: GlcA(b1-3)GlcNAc
Procedure, shortened: as §1

GlcA(b1-6)Gal = biological target: GlcA(b1-6)Gal
Procedure, shortened: as §1

[7] = biological target: GlcA3S(b1-3)Gal(b1-4)GlcNAc(b1-2)Man
Procedure, shortened: as §1

[8] = biological target: GlcA3S(b1-3)Gal(b1-4)GlcNAc(b1-3)Gal(b1-4)Glc
Procedure, shortened: as §1

[9] = biological target: GlcNAc(a1-3)Gal(b1-4)GlcNAc
Procedure, shortened: as §1

[10] = biological target: GlcNAc(a1-4)Gal(b1-3)GlcNAc
Procedure, shortened: as §1

[11] = biological target: GlcNAc(a1-4)Gal(b1-4)GalNAc
Procedure, shortened: as §1

[12] = biological target: GlcNAc(a1-4)Gal(b1-4)GlcNAc
Procedure, shortened: as §1

[13] = biological target: GlcNAc(a1-4)Gal(b1-4)GlcNAc(b1-3)Gal(b1-4)Glc
Procedure, shortened: as §1

[14] = biological target: GlcNAc(a1-4)Gal(b1-4)GlcNAc(b1-3)Gal(b1-4)GlcNAc
Procedure, shortened: as §1

[15] = biological target: GlcNAc(a1-4)Gal(b1-4)GlcNAc(b1-3)Gal(b1-4)GlcNAc(b1-3)Gal(b1-4)GlcNAc
Procedure, shortened: as §1

[16] = biological target: GlcNAc(a1-4)Gal(b1-4)GlcNAc(b1-3)Gal(b1-4)[Fuc(a1-3)]GlcNAc(b1-3)Gal(b1-4)[Fuc(a1-3)]GlcNAc
Procedure, shortened: as §1

[17] = biological target: GlcNAc(a1-6)Gal(b1-4)GlcNAc
Procedure, shortened: as §1

[18] = biological target: GlcNAc(b1-2)Gal(b1-3)GalNAc
Procedure, shortened: as §1

[19] = biological target: GlcNAc(b1-2)Man(a1-3)[GlcNAc(b1-2)Man(a1-6)]Man(b1-4)GlcNAc(b1-4)GlcNAc
Procedure, shortened: as §1

[20] = biological target: GlcNAc(b1-2)Man(a1-3)[GlcNAc(b1-2)Man(a1-6)]Man(b1-4)GlcNAc(b1-4)[Fuc(a1-6)]GlcNAc
Procedure, shortened: as §1

[21] = biological target: GlcNAc(b1-2)Man(a1-3)[GlcNAc(b1-4)][GlcNAc(b1-2)Man(a1-6)]Man(b1-4)GlcNAc(b1-4)GlcNAc
Procedure, shortened: as §1

[22] = biological target: GlcNAc(b1-2)Man(a1-3)[GlcNAc(b1-4)][GlcNAc(b1-2)Man(a1-6)]Man(b1-4)GlcNAc(b1-4)[Fuc(a1-6)]GlcNAc
Procedure, shortened: as §1

[23] = biological target: GlcNAc(b1-2)[GlcNAc(b1-4)]Man(a1-3)[GlcNAc(b1-2)Man(a1-6)]Man(b1-4)GlcNAc(b1-4)GlcNAc
Procedure, shortened: as §1

[24] = biological target: GlcNAc(b1-2)[GlcNAc(b1-4)]Man(a1-3)[GlcNAc(b1-4)][GlcNAc(b1-2)Man(a1-6)]Man(b1-4)GlcNAc(b1-4)GlcNAc
Procedure, shortened: as §1

[25] = biological target: GlcNAc(b1-2)[GlcNAc(b1-4)]Man(a1-3)[GlcNAc(b1-4)][GlcNAc(b1-2)[GlcNAc(b1-6)]Man(a1-6)]Man(b1-4)GlcNAc(b1-4)GlcNAc
Procedure, shortened: as §1

[26] = biological target: GlcNAc(b1-2)[GlcNAc(b1-4)]Man(a1-3)[GlcNAc(b1-4)][GlcNAc(b1-2)[GlcNAc(b1-6)]Man(a1-6)]Man(b1-4)GlcNAc(b1-4)[Fuc(a1-6)]GlcNAc
Procedure, shortened: as §1

[27] = biological target: GlcNAc(b1-2)[GlcNAc(b1-6)]Man(a1-6)[GlcNAc(b1-2)Man(a1-3)]Man(b1-4)GlcNAc(b1-4)GlcNAc
Procedure, shortened: as §1

[28] = biological target: GlcNAc(b1-2)[GlcNAc(b1-6)]Man(a1-6)[GlcNAc(b1-2)Man(a1-3)]Man(b1-4)GlcNAc(b1-4)[Fuc(a1-6)]GlcNAc
Procedure, shortened: as §1

[29] = biological target: GlcNAc(b1-2)[GlcNAc(b1-6)]Man(a1-6)[GlcNAc(b1-4)][GlcNAc(b1-2)Man(a1-3)]Man(b1-4)GlcNAc(b1-4)GlcNAc
Procedure, shortened: as §1

GlcNAc(b1-3)Fuc = biological target: GlcNAc(b1-3)Fuc
Procedure, shortened: as §1

GlcNAc(b1-3)Gal = biological target: GlcNAc(b1-3)Gal
Procedure, shortened: as §1

[30] = biological target: GlcNAc(b1-3)Gal(b1-3)GalNAc
Procedure, shortened: as §1

B1: Thrombomodulin (Mus musculus) (protein)
chain: ALAKLQPTGSQCVEHECFALFQGPATFLDASQACQRLQGHLMTVRSSVAADVISLLLSQSSMDLGPWIGLQLPQGCDDPVHLGPLRGFQWVTGDNHTSYSRWARPNDQTAPLCGPLCVTVSTATEAAPGEPAWEEKPCETETQGFLCEFYFTASC
glycan array binding signal (z-score) [1]: -0.08 | glycan array binding signal (z-score) [2]: -0.166 | glycan array binding signal (z-score) [3]: -0.236 | glycan array binding signal (z-score) (GalNAc(b1-4)GlcNAc6S): -0.36 | glycan array binding signal (z-score) (GalNAc(b1-6)GalNAc): -0.209 | glycan array binding signal (z-score) (GalNAc3S(b1-4)GlcNAc): 0.212 | glycan array binding signal (z-score) (GalNAc3S(b1-4)GlcNAc3S): 0.001 | glycan array binding signal (z-score) [4]: 0.028 | glycan array binding signal (z-score) (GalNAc4S6S(b1-4)GlcNAc): -0.251 | glycan array binding signal (z-score) (GalNAc6S(b1-4)GlcNAc): -0.071 | glycan array binding signal (z-score) (Glc(a1-4)Glc): 0.026 | glycan array binding signal (z-score) [5]: 0.352 | glycan array binding signal (z-score) (Glc(a1-6)Glc(a1-6)Glc): -0.325 | glycan array binding signal (z-score) [6]: -0.276 | glycan array binding signal (z-score) (Glc(b1-4)Glc): -0.188 | glycan array binding signal (z-score) (Glc(b1-6)Glc): -0.231 | glycan array binding signal (z-score) (GlcA(b1-3)Gal): -0.295 | glycan array binding signal (z-score) (GlcA(b1-3)GlcNAc): 0.083 | glycan array binding signal (z-score) (GlcA(b1-6)Gal): -0.236 | glycan array binding signal (z-score) [7]: -0.132 | glycan array binding signal (z-score) [8]: -0.476 | glycan array binding signal (z-score) [9]: -0.129 | glycan array binding signal (z-score) [10]: -0.238 | glycan array binding signal (z-score) [11]: -0.394 | glycan array binding signal (z-score) [12]: -0.436 | glycan array binding signal (z-score) [13]: -0.282 | glycan array binding signal (z-score) [14]: -0.183 | glycan array binding signal (z-score) [15]: -0.453 | glycan array binding signal (z-score) [16]: 0.047 | glycan array binding signal (z-score) [17]: -0.229 | glycan array binding signal (z-score) [18]: 0.013 | glycan array binding signal (z-score) [19]: -0.244 | glycan array binding signal (z-score) [20]: -0.317 | glycan array binding signal (z-score) [21]: -0.227 | glycan array binding signal (z-score) [22]: -0.052 | glycan array binding signal (z-score) [23]: 0.101 | glycan array binding signal (z-score) [24]: 1.03 | glycan array binding signal (z-score) [25]: -0.374 | glycan array binding signal (z-score) [26]: -0.228 | glycan array binding signal (z-score) [27]: 0.026 | glycan array binding signal (z-score) [28]: -0.148 | glycan array binding signal (z-score) [29]: -0.367 | glycan array binding signal (z-score) (GlcNAc(b1-3)Fuc): 0.141 | glycan array binding signal (z-score) (GlcNAc(b1-3)Gal): -0.098 | glycan array binding signal (z-score) [30]: 0.096
